According to publication PMC7819943, “Rice protein-binding microarrays: a tool to detect cis-acting elements near promoter regions in rice”:
The list shows a part of the results.

biological target: T1, OsWOX13 (Oryza sativa, UniProt Q5QMM3 1-267); experiment: protein-binding microarray (RPBM); PBS, 2% BSA, 51.3 ng/ul salmon testes DNA, 50 uM zinc acetate, 200 nM TF, 25 C, 1 h; high values mean tight binding; details: protein: recombinant; tags: N-terminal polyhistidine and DsRed monomer fusion (pET32a); label: CyDye5-dUTP incorporated in the synthesized complementary strand; 3' TTTTT single-stranded linker to array surface; dsDNA, one strand shown
T1 sequence: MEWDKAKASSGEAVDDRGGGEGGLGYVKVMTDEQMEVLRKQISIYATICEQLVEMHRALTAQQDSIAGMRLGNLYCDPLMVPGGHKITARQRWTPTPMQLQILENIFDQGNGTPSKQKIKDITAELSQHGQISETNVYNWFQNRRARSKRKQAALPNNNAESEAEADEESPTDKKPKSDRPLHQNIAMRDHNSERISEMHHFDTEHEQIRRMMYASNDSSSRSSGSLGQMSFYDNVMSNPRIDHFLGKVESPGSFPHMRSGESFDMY
How it was run: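 The binding signal is fluorescence intensity per feature, in arbitrary units, read on an Axon 4000B scanner. Polyhistidine- and DsRed-tagged transcription factors (N-terminal fusions) from E. coli BL21-CodonPlus were purified on Ni–NTA and applied at 200 nM for 1 h at 25 °C to a double-stranded, BSA-blocked custom Agilent array in buffer with 50 µM zinc acetate.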

| Sequence | binding signal |
| --- | --- |
| TTGATGATGTGAAGTTTATGAAAACTGTGTCTAGTGTCATCGGAGTCACCTAGTGCAG | 5070 fluorescence intensity (a.u.) |
| CACTAGTAATTACTATTATAGAGCATCTTAAATCTCATCTCGGAGTCACCTAGTGCAG | 14800 fluorescence intensity (a.u.) |
| TTATCAATCAAGGATCAAGAACTTCTTCACAGCAATCTTGCGGAGTCACCTAGTGCAG | 25100 fluorescence intensity (a.u.) |
| TTTCAATTGGTATCAATTCAAACCCACTCACTTAAAATGCCGGAGTCACCTAGTGCAG | 6960 fluorescence intensity (a.u.) |
| TGGTTAATTACGTTCCGGTTCATGCTATTGAGGTCCGTTCCGGAGTCACCTAGTGCAG | 26200 fluorescence intensity (a.u.) |
| TTGAAATTATTCTTGAATAATAATTTATTATGAGCTACTACGGAGTCACCTAGTGCAG | 8230 fluorescence intensity (a.u.) |
| AAAGATGATTTTCATAGTATTGGTTATTCATAATCAATTGCGGAGTCACCTAGTGCAG | 11800 fluorescence intensity (a.u.) |
| GTACCAATTACGCCAATGAAAGCTAGCAGAAATGGAGGAACGGAGTCACCTAGTGCAG | 10300 fluorescence intensity (a.u.) |
| ATTCTATACTTGGCACAAATGCTCGTATTTAAGGTTATTTCGGAGTCACCTAGTGCAG | 4430 fluorescence intensity (a.u.) |
| TATATATATATATATATATATATATATATATATATGAGAACGGAGTCACCTAGTGCAG | 9830 fluorescence intensity (a.u.) |
| GTATTAACATATGATTAATTATTTAATTAAGTGTTAATTACGGAGTCACCTAGTGCAG | 28200 fluorescence intensity (a.u.) |
| CGGTTGACAAGAATTATTGACTGCCGAACAGTGATGTACTCGGAGTCACCTAGTGCAG | 24600 fluorescence intensity (a.u.) |
| AAAATTGATGTTCTCTTTGGTGCATTTCTTTCTTATTGTCCGGAGTCACCTAGTGCAG | 26800 fluorescence intensity (a.u.) |
| TAAATTAACATAAATCGGCTTAGAGTTGATTCTTAGCATTCGGAGTCACCTAGTGCAG | 16600 fluorescence intensity (a.u.) |
| ATTTCACTGCTATTAAGTTCAATCAACTAAGTTACTTTGACGGAGTCACCTAGTGCAG | 7960 fluorescence intensity (a.u.) |
| GTTAGATCCAAGTTACACATTGATTGGGCTGCACAACACCCGGAGTCACCTAGTGCAG | 8740 fluorescence intensity (a.u.) |
| TGATTCAAATGATTGAAGCTTTCCAAAACCTATGAAATTCCGGAGTCACCTAGTGCAG | 17700 fluorescence intensity (a.u.) |
| ACATTGCTTAATTAAGTCTATGTTAAATGGTATTGGATCACGGAGTCACCTAGTGCAG | 15800 fluorescence intensity (a.u.) |
| TACCTGATCAACTTTGACTAATTTTATCCATGTCATTCAGCGGAGTCACCTAGTGCAG | 11500 fluorescence intensity (a.u.) |
| TACATGTTAACTTTACTGTGAATGAATAGCATTGAGCTTCCGGAGTCACCTAGTGCAG | 3200 fluorescence intensity (a.u.) |
| TCATCTTAATGTAATTAATTGAGTCTAAATAAAGCTTCCACGGAGTCACCTAGTGCAG | 16400 fluorescence intensity (a.u.) |

| Sequence | binding signal |
| --- | --- |
| AAAACTTGAAATTTATATATAAACTTTCATGTTGGGTAAGCGGAGTCACCTAGTGCAG | 6360 fluorescence intensity (a.u.) |
| GTTGTGTTACATGATTGTCACTTTGGGCCATTAAACAACGCGGAGTCACCTAGTGCAG | 5690 fluorescence intensity (a.u.) |
| AATAAATTACTAATAGTTTCGCACGCGCACTAAAGACATTCGGAGTCACCTAGTGCAG | 19700 fluorescence intensity (a.u.) |
| ACTAACCAATCACAAGCTCTGCCCATTCACTTCCTCGCTTCGGAGTCACCTAGTGCAG | 11200 fluorescence intensity (a.u.) |
| TTTTGTTTGATTTGGTTATTGGCGAATGGCGATGTTGAACCGGAGTCACCTAGTGCAG | 6260 fluorescence intensity (a.u.) |
| TCAAATATGACTAAATTAGTAGTTAAGTAGTATGGGAGAACGGAGTCACCTAGTGCAG | 13400 fluorescence intensity (a.u.) |
| TATACGGCGTAAATCCGGATGATTGATGCTAGGGTATGTCCGGAGTCACCTAGTGCAG | 8690 fluorescence intensity (a.u.) |
| CAACAACTGTAATTTACTGCTTGCAGTGCTGAGTGTCTCCCGGAGTCACCTAGTGCAG | 4360 fluorescence intensity (a.u.) |
| CATATTAGATTGTAACATTTTGGAACAGATGGAGTAATAGCGGAGTCACCTAGTGCAG | 8490 fluorescence intensity (a.u.) |
| CGCCTCTCGATTGATTCCCCGAGCCGAGACGAGACGAGACCGGAGTCACCTAGTGCAG | 4140 fluorescence intensity (a.u.) |
| TATGATTTTACATGAAACTACGACCATAACCCGGTGAAATCGGAGTCACCTAGTGCAG | 6110 fluorescence intensity (a.u.) |
| TTTTCACTGTGATTACCACTGGGTAACGGTGATACTCCTACGGAGTCACCTAGTGCAG | 3870 fluorescence intensity (a.u.) |
| TCTCTAATTAATAAATATGCAATAATAACATACCCAAGCTCGGAGTCACCTAGTGCAG | 18100 fluorescence intensity (a.u.) |
| TGATTCCCTATCAAAATTTAAATTTGGTGTAGTTTTGTAACGGAGTCACCTAGTGCAG | 8870 fluorescence intensity (a.u.) |
| GGCATTGACGAGCACCTTAGAGTTGTGGTGGACCAAGGCGCGGAGTCACCTAGTGCAG | 8690 fluorescence intensity (a.u.) |
| CTCTGAATATAAATTGATCGGTAGTTAACAGGCACCGGCCCGGAGTCACCTAGTGCAG | 23900 fluorescence intensity (a.u.) |
| CTGGAAATTAAACAGGGCCTAAGTACGTATGTGTTGTAAGCGGAGTCACCTAGTGCAG | 10200 fluorescence intensity (a.u.) |
| CTATAATTTCTGGTTACGGTGGTGACAAGTCATGTGGGCTCGGAGTCACCTAGTGCAG | 13900 fluorescence intensity (a.u.) |
| GGAGGGGACCTTCTTAATTAATTACACAGCATCTACTTTGCGGAGTCACCTAGTGCAG | 4150 fluorescence intensity (a.u.) |
| AAGCCAATTTATCCGAGTCATTAGTTCAACTTCTACCACACGGAGTCACCTAGTGCAG | 4260 fluorescence intensity (a.u.) |
| ATCATGCTGTGATTAATTGTTATGCATATGTCAGTGTATGCGGAGTCACCTAGTGCAG | 24400 fluorescence intensity (a.u.) |
